This is one part of the list. Values were computed here from the reads of four pooled replicates and scatter widely.
Target: T1, Pho4 (S. cerevisiae) (UniProt P07270)
T1 sequence: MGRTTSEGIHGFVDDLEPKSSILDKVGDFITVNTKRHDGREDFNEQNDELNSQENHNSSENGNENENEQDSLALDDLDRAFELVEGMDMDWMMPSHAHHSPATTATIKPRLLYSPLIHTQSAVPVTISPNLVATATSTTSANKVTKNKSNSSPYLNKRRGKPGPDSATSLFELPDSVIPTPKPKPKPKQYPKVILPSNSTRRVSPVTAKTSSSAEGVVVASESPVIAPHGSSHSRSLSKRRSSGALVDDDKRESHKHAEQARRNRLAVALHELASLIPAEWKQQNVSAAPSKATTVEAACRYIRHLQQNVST
Assay: relative binding free energy (BET-seq); higher = weaker binding
Details: reference: library average

Sequence	relative binding free energy [kcal/mol]
TAGTTCACGTGGGAGC	0.19
GGTTTCACGTGGACAG	0.37
GTTGACACGTGGTAAA	-0.01
GTTTTCACGTGGTGCC	0.39
TTCGGCACGTGCTGTG	-0.03
TGGGTCACGTGTGTGA	0.14
TGGCACACGTGGGTCG	-0.08
TGCGGCACGTGCTTTT	-0.12
TGAGCCACGTGTAAGG	0.09
TCTGTCACGTGGTGTC	0.01
TCGGTCACGTGAGTTT	0.19
TGCCTCACGTGGGATG	0.05
TCGGGCACGTGTGAGA	0.1
GGCAGCACGTGGCGTG	-0.05
GGTCTCACGTGTTTGT	0.17
ATAAACACGTGTCGGG	0.05
ACTTGCACGTGTAGGT	0.01
GGTGCCACGTGATATT	0.17
GGGGGCACGTGGCAGG	-0.15
GGGGTCACGTGTGAGT	0.19
AGTAGCACGTGGATGT	-0.09
TAGTACACGTGGTTTC	0.09
GGTAGCACGTGTAAGG	0.04
GATTGCACGTGGTCTG	-0.08
TTGTACACGTGCTGTG	-0.01

Sequence	relative binding free energy [kcal/mol]
TTGTGCACGTGCTGAT	-0.12
AGGGACACGTGGGTCA	-0.11
TAGACCACGTGGGGGA	-0.21
AATAGCACGTGCTGGT	-0.19
AGGCGCACGTGTAGGA	-0.1
GCAATCACGTGGTGTA	0.13
TTGATCACGTGTGACT	0.27
TTAGGCACGTGCATGT	-0.17
ATGGGCACGTGTTAAG	-0.08
AGATGCACGTGGTGGT	-0.15
ACAGTCACGTGTTTTT	0.09
AGGGTCACGTGTAGTC	0.15
TTAAACACGTGACAGG	0.28
GGGGCCACGTGCGGGT	-0.22
CTGTGCACGTGTTACG	0.07
TCGGTCACGTGCTGTT	0
GAACGCACGTGGGTGA	-0.14
CCTTTCACGTGGGGGA	0.08
AGCATCACGTGGGTGG	0.05
GCGAGCACGTGGGTAT	-0.16
CTGAACACGTGTGGGG	0.11
CTAGGCACGTGTGAGG	-0.03
CGGGGCACGTGTTATG	-0.02
CGTGGCACGTGATAAT	0.11
TTAATCACGTGAGGCT	0.43

Sequence	relative binding free energy [kcal/mol]
ATGTTCACGTGTCGGG	0.26
GCTTGCACGTGGGAGT	-0.06
GTTTTCACGTGGCATA	0.08
TGAGTCACGTGACGTG	0.08
GATTACACGTGTAAGG	0.16
TAGGTCACGTGATGAG	0.16
AGTGACACGTGGGGTT	-0.09
GTCGCCACGTGTAGTT	0.15
CGGGTCACGTGGCGGG	0.02
ATCAGCACGTGGGGCT	-0.13
TTTGTCACGTGATGAC	0.18
TTGCGCACGTGTGTCT	-0.18
GGGTCCACGTGTTGGA	0.11
TATGTCACGTGTGATC	0.24
GGTCGCACGTGGGGAT	-0.11
AGCTGCACGTGGTGGA	-0.22
TTGGTCACGTGCGTGT	0.06
GTAAACACGTGGTTAG	-0.08
ATTTGCACGTGACATG	-0.04
TTGCACACGTGCTGGT	0.03
TAAGGCACGTGGTATA	-0.36
GATAGCACGTGGACGG	0.1
TGGTGCACGTGAATTG	0.24
TTTTACACGTGCGGTT	0.08
GGGTGCACGTGGGCCA	-0.22

Sequence	relative binding free energy [kcal/mol]
AGTTTCACGTGGAACA	0.44
TTAAACACGTGTTAGT	0.05
TGATGCACGTGTTGCT	-0.12
TTTTTCACGTGAATCG	0.29
AATAGCACGTGTGCTG	-0.08
AGACACACGTGTGTGG	-0.02
GGTGGCACGTGGGACT	-0.09
GAGAGCACGTGTTTTG	0.08
TAAGGCACGTGGTGAC	-0.13
GGGGCCACGTGGGTAA	-0.11
TGTTTCACGTGGATGG	0.36
AGGGCCACGTGGTAGA	-0.15
TAAAACACGTGGTGTG	-0.11
TGTTGCACGTGCGGGC	-0.11
AGTCTCACGTGGGGTT	0.2
CTGTGCACGTGGGTTG	-0.08
GTGGGCACGTGAGTAC	0.24
CATGGCACGTGCAGGT	-0.2
GCGGTCACGTGCGGTG	0.13
GGCGGCACGTGGGATA	0.02
GTTGGCACGTGGTTTG	-0.06
AGTGTCACGTGAGCTT	0.31
ATTTTCACGTGACTTT	0.25
AAGGTCACGTGCGGTT	0.08
TTATTCACGTGTCCGG	0.18

Sequence	relative binding free energy [kcal/mol]
TTAGGCACGTGGATAG	0.05
AATTGCACGTGGTGTT	-0.07
TCCGGCACGTGGGAGG	-0.24
GGTGTCACGTGGCTCA	0.17
TTTGGCACGTGTCTGA	-0.11
AGTTTCACGTGTCTTG	0.28
CAATACACGTGTGTGG	0.08
GTTTTCACGTGTGAAG	0.34
TGGAACACGTGTATGG	-0.01
GGGGACACGTGGGGAC	-0.1
GTTGCCACGTGTGGGT	0
GTGGGCACGTGTGATA	0.06
TTCTGCACGTGTGGTT	0.14
TAGGACACGTGTAGGC	0.18
AGTATCACGTGAAGAG	0.33
TATGTCACGTGGAAAG	0.17
ATTTTCACGTGTGCAT	0.23
TGTAGCACGTGTTGCC	-0.01
TGTTGCACGTGTGTAG	0.02
CGGGGCACGTGGAAGC	-0.07
AGGAACACGTGGGGAA	-0.03
AAAGTCACGTGCGTGG	0.1
TCATACACGTGTGGGT	0.07
GTGTACACGTGTGGCG	0.05
TAAGTCACGTGTCTTT	0.05

Sequence	relative binding free energy [kcal/mol]
AGTTGCACGTGGTTCA	-0.15
CGCTGCACGTGGGTGT	-0.2
TTGGACACGTGAGGTT	0.24
TTTGTCACGTGTAATG	0.06
ATGTACACGTGCTGGC	0.17
CAGTACACGTGGGGGT	-0.11
GGTCGCACGTGAGAGG	0.2
TATGTCACGTGAAGAT	0.2
GAGGTCACGTGAGAGT	0.23
GCTTACACGTGGTTGT	-0.06
TTGGGCACGTGGAAAC	0.06
GTTTACACGTGTTCTT	0.15
TATGACACGTGCGGAG	0
TGGTTCACGTGTACAA	0.22
TGTGACACGTGGCGCG	-0.12
CATATCACGTGAAGGG	0.43
AGTGGCACGTGGTGAT	-0.18
TTGATCACGTGGTACG	-0.02
TTAAGCACGTGTGGGC	0.1
TTATTCACGTGTGTGA	0.23
TGCATCACGTGTTGAG	0.19

— the BET-seq Pho4 binding data (Le et al. 2018)
